Measured values: US20030215462A1, “Use of UGT inhibitors to increase bioavailability” (priority 2001, published 2003)
“And” between values parts separate entries of the source, which are not always exact repeats. Equal entries are not always repeated. At least one structure is not confirmed: it was looked up by name or label, or the drawing left a doubt. Some entries share one result that the patent states for a list of compounds.

Columns and labels:
[1] = biological target: T1, UGT enzymes of human liver microsomes; test: Inhibition of 7-HFC glucuronidation in human liver microsomes; type: biochemical; conditions: for % of control metabolism (SD, n = 3), 7-HFC glucuronidation: human liver microsomes 100 μg/ml
T1 construct: percentage of control metabolism, 7-HFC glucuronidation; percentage of control metabolism, 7-HFC glucuronidation

[2] = test system: UGT enzymes of human liver microsomes; test: Inhibition of raloxifene glucuronidation (G1, G2) in human liver microsomes; type: biochemical; conditions: raloxifene 50 μM; for % of control metabolism (SD, n = 3), raloxifene glucuronide G1 / % of control metabolism (SD, n = 3), raloxifene glucuronide G2: human liver microsomes 250 μg/ml, 15 min
Text: Compounds were eluted using a binary solvent gradient system. […] Solvent B was methanol. […] Detection was at 280 nm.

[3] = inhibitor 500 μM, 7-HFC 50 μM, 15 min
[4] = inhibitor 100 μM, 7-HFC 50 μM, 15 min
[5] = inhibitor 200 μM, 7-HFC 50 μM, 15 min

Row | SMILES | % of control metabolism (SD, n = 3), 7-HFC glucuronidation [1, 3] | % of control metabolism (SD, n = 3), raloxifene glucuronide G1 ([2]; inhibitor 500 μM) | % of control metabolism (SD, n = 3), raloxifene glucuronide G2 ([2]; inhibitor 500 μM) | % of control metabolism (SD, n = 3), 7-HFC glucuronidation [1, 4] | % of control metabolism (SD, n = 3), 7-HFC glucuronidation [1, 5] | % of control metabolism (SD, n = 3), raloxifene glucuronide G1 ([2]; inhibitor 25 μM) | % of control metabolism (SD, n = 3), raloxifene glucuronide G1 ([2]; inhibitor 50 μM) | % of control metabolism (SD, n = 3), raloxifene glucuronide G1 ([2]; inhibitor 100 μM) | % of control metabolism (SD, n = 3), raloxifene glucuronide G2 ([2]; inhibitor 25 μM) | % of control metabolism (SD, n = 3), raloxifene glucuronide G2 ([2]; inhibitor 50 μM) | % of control metabolism (SD, n = 3), raloxifene glucuronide G2 ([2]; inhibitor 100 μM) | also measured
1 | COc1cc(CNC(=O)CCCC/C=C/C(C)C)ccc1O [Capsaicin] | – | – | – | – | – | – | – | – | – | – | – | IC50 ([1]; 7-HFC 50 μM, 1 mM UDPGA, 15 min): 100 to 200 µM
2 | C[C@]12CC[C@@H]3c4ccc(O)cc4CC[C@H]3[C@@H]1CCC2=O [Estrone] | 94 (3), % and 85 (1) % | 75 (0) % | 101 (3) % | – | – | – | – | – | – | – | – | –
3 | CCCNCC(O)COc1ccccc1C(=O)CCc1ccccc1 (stereo not drawn) [Propafenone] | 108 (2) % | 143 (1) % | 129 (4) % | – | – | – | – | – | – | – | – | –
4 | CC1=C(/C=C/C(C)=C/C=C/C(C)=C/C(=O)O)C(C)(C)CCC1 [Retinoic acid] | 84 (1) % | 77 (3) % | 75 (1) % | 91 (2), % and 87 (1) % | 84 (3) % | – | – | – | – | – | – | percentage of control metabolism, 7-HFC glucuronidation ([1]; inhibitor 100 μM): 91 (2) % and 57 (2) %; percentage of control metabolism, 7-HFC glucuronidation ([1]; inhibitor 200 μM): 84 (3) %; percentage of control metabolism, 7-HFC glucuronidation ([1]; inhibitor 500 μM): 40 (2) %
5 | C[C@@H]1O[C@@H](OC[C@H]2O[C@@H](Oc3c(-c4ccc(O)c(O)c4)oc4cc(O)cc(O)c4c3=O)[C@H](O)[C@@H](O)[C@@H]2O)[C@H](O)[C@H](O)[C@H]1O [Rutin] | – | 84 (2) % | 61 (3) % | – | – | 101 (5) % | 88 (4) % | 83 (10) % | 101 (4) % | 81 (9) % | 72 (2) % | –
6 | COc1cc(C2Oc3cc([C@H]4Oc5cc(O)cc(O)c5C(=O)[C@@H]4O)ccc3OC2CO)ccc1O (stereo partly drawn) [Silibinin] | 40 (2) % | 12 (2) % | 15 (1) % | 57 (2) % | 54 (3) % | 56 (6) % | 38 (3) % | 23 (1) % | 44 (2) % | 31 (6) % | 22 (1) % | % of control metabolism (SD, n = 3), raloxifene glucuronide G1 ([2]; inhibitor 2 μM): 87 (8) %; % of control metabolism (SD, n = 3), raloxifene glucuronide G1 ([2]; inhibitor 5 μM): 88 (0) %; % of control metabolism (SD, n = 3), raloxifene glucuronide G1 ([2]; inhibitor 10 μM): 71 (3) %; % of control metabolism (SD, n = 3), raloxifene glucuronide G2 ([2]; inhibitor 2 μM): 83 (4) %; % of control metabolism (SD, n = 3), raloxifene glucuronide G2 ([2]; inhibitor 5 μM): 78 (1) %; % of control metabolism (SD, n = 3), raloxifene glucuronide G2 ([2]; inhibitor 10 μM): 61 (2) %; % of control metabolism, raloxifene G1 ([2]; inhibitor 10 μM): 71 (3) %; % of control metabolism, raloxifene G2 ([2]; inhibitor 10 μM): 61 (2) %; % of control metabolism, raloxifene G1 ([2]; inhibitor 25 μM): 56 (6) %; % of control metabolism, raloxifene G2 ([2]; inhibitor 25 μM): 44 (2) %; % of control metabolism, raloxifene G1 ([2]; inhibitor 50 μM): 38 (3) %; % of control metabolism, raloxifene G2 ([2]; inhibitor 50 μM): 31 (6) %; % of control metabolism, raloxifene G1 ([2]; inhibitor 100 μM): 23 (1) %; % of control metabolism, raloxifene G2 ([2]; inhibitor 100 μM): 22 (1) %
